# Experimental data: PubChem BioAssay AID493208 (National Center for Advancing Translational Sciences (NCATS), 2011)
# Among all 44,000 compounds or so, about 340 (0.77%) were called active. Another 5% or so got no clear call; they are omitted. Calls come from the whole dose curve; as a rule, active = well fitted inhibition curve with a large enough effect; inconclusive = small, poorly fitted or top-dose-only effect; inactive = flat fitted curve, though single readings scatter. This is one part of the list.
# Experiment: Acumen qHTS Assay for Inhibitors of the mTORC1 Signaling Pathway in MEF (Tsc2-/-, p53-/-) Cells: Sytravon;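 note: plate controls were DMSO for no effect and rapamycin for full effect; nearly all actives have a fitted effect of over 50% in size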
# Settings: phospho-rpS6 immunofluorescence/PI, 24 h; series mostly up to 38.3 µM; activity change, negative = inhibition: at the top concentration
# In short: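 Read-out: phospho-S6 Alexa-488 intensity over PI intensity per well, scored as % active cells using thresholds from rapamycin (7.5 nM) and DMSO controls. Tsc2-/-, p53-/- MEFs exposed to compound for 24 h; PI cell count recorded as viability.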
row,SMILES,"activity change, negative = inhibition"
1,Cc1ccc(C)c(CSc2cn(CCNC(=O)c3ccccc3F)c3ccccc23)c1,inactive: 7.41%
2,COc1cccc(C(C(=O)NCc2ccccc2)N(C(=O)Cn2nnc3ccccc32)c2cccc(C(C)=O)c2)c1 (stereo not drawn),inactive: -4.08%
3,COc1ccc(Cc2c(C)nn(-c3nc(C)c(C(=O)Nc4ccc(C)cc4C)s3)c2C)cc1,inactive: 0.545%
4,COc1cc(C2c3c(-c4ccccc4O)n[nH]c3C(=O)N2CCO)ccc1OCC(C)C (stereo not drawn),inactive: -20.1%
5,COc1ccc(NC(=O)c2oc3ccc(S(=O)(=O)N4CCC5(CC4)OCCO5)cc3c2C)cc1Cl,inactive: 4.58%
6,CCCCc1ccc(NC(=O)CSc2nnc3[nH]c(=O)cc(C)n23)cc1,inactive: 2.07%
7,CCCN1CCN(CCCNC(=O)c2ccc(CS(=O)c3ccc(OC)cc3)o2)CC1 (stereo not drawn),inactive: 4.31%
8,CCN(CC)CCNC(=O)c1cc2c(=O)oc3ccc(C)cc3c2s1,inactive: -18.7%
9,Cc1ccc(NC(=O)Cn2nnc3sc4c(c3c2=O)CCCC4)c(C)c1,inactive: 2.83%
10,O=C(/C=C/c1ccc(Cl)cc1)Nc1nc(-c2cccs2)ns1,inactive: 0.479%
11,Cc1cc(C)c(Cn2c3ccccc3c3cnn(CC(=O)NCC(C)c4ccccc4)c(=O)c32)c(C)c1 (stereo not drawn),inactive: 1.4%
12,CCn1cc(C(=O)NCc2ccc(F)cc2)c(=O)c2cc(S(=O)(=O)N(C)C)ccc21,inactive: 1.05%
13,COc1cc(OC)c(NC(=O)CCNS(=O)(=O)c2ccc3c(c2)oc(=O)n3C)cc1Cl,inactive: -6.02%
14,Cc1ccc(CNC(=O)CSC2=Nc3ccccc3C3=NC(C)C(=O)N23)cc1 (stereo not drawn),inactive: 1.87%
15,Cc1ccc2occ(CC(=O)N3CCN(c4cccc(Cl)c4)CC3)c2c1,inactive: -2.7%
16,CCCN1CCN(CCCNC(=O)Cn2c(-c3cccs3)cc3cc(Cl)ccc32)CC1,inactive: -0.299%
17,Cc1cc(Cl)ccc1NC(=O)c1cc2ccccn2n1,inactive: 7.61%
18,CCOC(=O)c1ccccc1NC(=O)c1nn(C)c2c1COc1ccccc1-2,inactive: -17.5%
19,CC(=O)Nc1cccc(NC(=O)C(=O)NCCc2csc3nc(-c4ccccc4F)nn23)c1,inactive: 0.85%
20,COc1ccccc1N1CCN(S(=O)(=O)c2ccc(-c3cnc(C4CC4)o3)cc2)CC1,inactive: 0%
21,CC(C)CCNC(=O)c1cn(C)c2ccc(S(=O)(=O)N3CCOCC3)cc2c1=O,inactive: -0.19%
22,Cc1ccc(OCc2nnc(-c3ccccc3)o2)cc1,inactive: -20.6%
23,COc1cc2c(cc1OC)C(COc1ccccc1OC)N(C(=O)c1ccccc1OC)CC2 (stereo not drawn),inactive: 1.77%
24,CCc1cccc(NC(=O)CCS(=O)(=O)c2cc3c4c(c2)CCN4C(=O)CC3)c1,inactive: 1.65%

row,SMILES,"activity change, negative = inhibition"
1,Cc1c(Cl)cccc1-n1nc(C)c2c(C)cc(=O)n(CC(=O)NCc3ccccc3)c21,inactive: 0.393%
2,Cc1cccc(C(=O)Nc2cccc(OCc3cc(=O)n4ccccc4n3)c2)c1,inactive: 9.47%
3,COc1cc2c(=O)c(S(=O)(=O)c3ccccc3)cn(CC(=O)Nc3ccccc3C)c2cc1OC,inactive: 5.31%
4,Cc1cc(C)c(NC(=O)Cn2c(=O)n(Cc3ccccc3)c(=O)c3c(C)c(C(=O)N(C)C)sc32)c(C)c1,inactive: -1.89%
5,CCC1CCCCN1Cc1cn2c(-c3ccc(Br)cc3)nnc2s1 (stereo not drawn),inactive: -6.32%
6,CCS(=O)(=O)N1CCc2cc(C(=O)Nc3ccc(OC)cc3OC)ccc21,inactive: 1.81%
7,CC(=O)c1cccc(NC(=O)c2nc(-c3ccccc3)n(-c3cccc(C)c3)n2)c1,inactive: 0.887%
8,CCOc1ccccc1NC(=O)CN1CCN(S(=O)(=O)c2ccc(Br)cc2)CC1,inactive: 6.8%
9,CCC(C)NC(=O)CSc1nc2cc3c(cc2c(=O)n1CCCCCC(=O)NCc1ccc(OC)cc1)OCO3 (stereo not drawn),inactive: -9.29%
10,COc1c(Cl)cc(Cl)cc1CNCCSc1nnnn1C,inactive: 3.7%
11,O=C(Nc1nc2n(n1)C(c1ccc(F)cc1)C=C(c1ccccc1)N2)c1cccc([N+](=O)[O-])c1 (stereo not drawn),inactive: 3.84%
12,Cc1ccc(Nc2sc(C(=O)c3ccccc3)c(N)c2S(=O)(=O)c2ccccc2)c(C)c1,inactive: 1.39%
13,COc1ccccc1N1CCN(C(=O)Cn2c(=O)n3nc(-c4cccc(C)c4)nc3c3ccccc32)CC1,inactive: 3.64%
14,COc1ccc(CCNC(=O)c2c(C)nn(-c3ccc(F)cc3)c2-n2cccc2)c(OC)c1OC,inactive: -12.3%
15,CCCSc1ncc(Cl)c(C(=O)Nc2c(C(=O)c3ccc(F)cc3)oc3ccccc23)n1,inactive: -9.18%
16,COc1ccc(-n2ncc(C(=O)Nc3ccc4c(c3)OCCO4)c2C2CCN(C(=O)OC(C)(C)C)CC2)cc1,inactive: -7.43%
17,CCOc1ccc(CNC(=O)C2CCCN(S(=O)(=O)N(CC)c3ccc(OCC)cc3)C2)cc1 (stereo not drawn),inactive: -12.5%
18,CCN(C(=O)Cn1nc(Cc2ccncc2)c2ccccc2c1=O)c1cccc(C(F)(F)F)c1,inactive: -7.14%
19,CC(C)Cn1c(=O)c2ccccc2n2c(CCC(=O)Nc3ccc(F)c(F)c3)nnc12,inactive: -6.08%
20,O=C(NCCc1ccccc1)c1ccc2c(c1)CCN2S(=O)(=O)c1ccccc1,inactive: -18%
21,Cc1ccc(S(=O)(=O)N2CCC(C(=O)Nc3ccc(Oc4ccccc4)cc3)CC2)cc1,inactive: -22.4%
22,CC(C)CSc1ccccc1NC(=O)c1sc2nc(-c3ccncc3)ccc2c1N,inactive: -18.5%
23,CCOC(=O)c1c(NC(=O)C(C)Oc2ccc(Cl)c(C)c2)sc2c1CCCC2 (stereo not drawn),inactive: -4.88%
24,Cc1cc(C)cc(NC(=O)CN2C(=O)CCc3cc(S(=O)(=O)N4CCCCC4)ccc32)c1,inactive: 0%
